# Source: the supplement of paper PMC5499739
# Whole data set: some 16,000 sequences, median “Z-score” near -0.37, cut for the highest 2% near 3.2. This is one part of the list.
# Tested on: RBM10 RRM1-ZnF (GST-tagged construct)
# Experiment: RNAcompete 7-mer binding Z-score; higher = stronger binding preference
# Outline: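 GST-tagged RBM10 constructs (20 pmol) were mixed with a designed pool of 241 399 RNAs up to 41 nt (1.5 nmol), transcribed from microarray-derived DNA templates. Mixing was in 1 ml Hepes pH 7.8 buffer with KCl, NaCl, glycerol, DTT, BSA and glutathione Sepharose beads. Binding ran 30 min at 4°C, followed by four 2-min washes at 4°C, and bound RNA was identified by microarray hybridisation. Each heptamer motif received a one-sided Z-score for enrichment across probes containing it.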
row,Sequence,RNAcompete 7-mer binding Z-score
1,CAGGUCU,-0.535
2,CCUCGGU,-0.259
3,AACGUAC,-0.373
4,CGACUGU,-0.798
5,GCGUGUU,-0.0837
6,UGGGCAU,1.32
7,GAUAUUG,0.267
8,ACGCGAC,-0.428
9,UCGCGUC,-0.451
10,UAAACCU,-0.701
11,CUCAGAA,-0.412
12,CCCGAUU,-0.811
13,CUAAGCU,-0.626
14,GUUGGUG,2.54
15,UGGCUCC,-0.461
16,UAAAGCC,-0.691
17,AUGAUUG,0.309
18,GGAGAAC,1.56
19,CUUUUUC,-0.659
20,GUGAUAU,0.339

row,Sequence,RNAcompete 7-mer binding Z-score
1,GGACGAA,0.826
2,ACGAGUU,-0.305
3,AGCCCCA,-0.376
4,CUUGGAA,0.166
5,UGGAUUG,1.78
6,UACCUGC,-0.743
7,AUAAACU,-0.539
8,GCCCGAU,-0.565
9,CAAUCAU,-0.704
10,UUCAUGA,-0.649
11,UCUUGUU,-0.633
12,UAGGGGC,2.25
13,GCUGGGC,0.862
14,GUACGAA,0.0658
15,UAUCACU,-0.707
16,CGUGCCC,-0.561
17,AUGUAUA,-0.253
18,UCCCGCA,-0.526
19,UUGCACC,-0.591
20,AACUGCG,-0.415

row,Sequence,RNAcompete 7-mer binding Z-score
1,UGUACCG,-0.233
2,AGUCGCG,-0.103
3,CCUCUCU,-0.753
4,AGCCACC,-0.474
5,UGCGACC,-0.675
6,CAUUGUG,-0.253
7,GCAGCGG,2.02
8,AUCACCC,-0.655
9,AGAUAGC,-0.142
10,UGCGUCA,-0.409
11,ACUACGU,-0.47
12,UCUCUCA,-0.724
13,ACGCAAC,-0.529
14,AACCAGU,-0.464
15,UUCGGAG,0.361
16,AGUCUAG,-0.00246
17,CUAAUAU,-0.607
18,UGUUAUG,-0.295
19,GUUGGAC,1.28
